# Reference: the antibiotic and cytotoxicity screens of Wong et al. (2023)
# The other results are listed elsewhere or left out.
# What was measured:
# HSkMC = human skeletal muscle cells; experiment: cytotoxicity call (relative viability < 0.9); settings: 10 µM
# HepG2 = experiment: cytotoxicity call (relative viability < 0.9); settings: 10 µM
# S. aureus RN4220 = experiment: growth inhibition call (relative growth <= 0.2); settings: 50 µM
Structure (SMILES),cytotoxicity call (HSkMC),cytotoxicity call (HepG2),growth inhibition call (S. aureus RN4220)
COCC(=O)N(C)C[C@@H]1Oc2cc(C#C[C@H](C)O)ccc2S(=O)(=O)N([C@@H](C)CO)C[C@H]1C,inactive,inactive,inactive
CN(C)C(=O)C[C@@H]1CC[C@H](NC(=O)C2CCOCC2)[C@H](CO)O1,inactive,inactive,inactive
C[C@@H]1CN([C@H](C)CO)C(=O)c2cc(NC(=O)CCCN(C)C)ccc2O[C@H]1CN(C)S(=O)(=O)c1ccccc1,inactive,inactive,inactive
C[C@@H]1CN([C@@H](C)CO)C(=O)c2cccc(NS(=O)(=O)c3cn(C)cn3)c2O[C@H]1CN(C)C(=O)Nc1ccccc1,inactive,inactive,inactive
C[C@H]1CN([C@@H](C)CO)C(=O)Cc2cc(NC(=O)CCCCCC(=O)Nc3ccccc3N)ccc2O[C@H]1CN(C)CC1CCCCC1,inactive,inactive,inactive
C[C@@H]1CN([C@H](C)CO)C(=O)c2cc(NC(=O)Nc3cccc4ccccc34)ccc2O[C@@H]1CN(C)C(=O)Nc1ccc(C(F)(F)F)cc1,inactive,inactive,inactive
COCC(=O)Nc1ccc2c(c1)C(=O)N(C)C[C@H](OC)[C@H](C)CN(C(=O)Cc1ccccn1)[C@H](C)CO2,inactive,inactive,inactive
O=C(C[C@@H]1C/C=C/C[C@H](Cc2ccccc2)C(=O)N[C@H](c2ccccc2)COC1=O)NCc1ccc(Cl)cc1,inactive,active,inactive
C[C@@H]1CCCCO[C@@H](CN(C)Cc2ccc3c(c2)OCO3)[C@@H](C)CN([C@@H](C)CO)C(=O)c2cc(NC(=O)CCC(F)(F)F)ccc2O1,inactive,inactive,inactive
COc1ccc(S(=O)(=O)Nc2ccc3c(c2)C(=O)N([C@H](C)CO)C[C@@H](C)[C@H](CN(C)C(=O)Nc2ccc(F)cc2)OCCCC[C@H](C)O3)cc1,inactive,inactive,inactive
Cc1ccc(Cn2nnc3c(=O)n(CC(N)=O)cnc32)cc1,inactive,inactive,inactive
O=C(C[C@H]1C=C[C@H](NS(=O)(=O)c2ccc(F)cc2)[C@H](CO)O1)NCCN1CCCCC1,inactive,inactive,inactive
CCCNC(=O)N(C)C[C@@H]1Oc2cc(-c3ccc(C)cc3)ccc2S(=O)(=O)N([C@H](C)CO)C[C@H]1C,inactive,inactive,inactive
COc1ccc(-c2cnc3c(c2)C(=O)N([C@@H](C)CO)C[C@H](C)[C@@H](CN(C)S(=O)(=O)c2ccc(OC)cc2)O3)cc1,inactive,inactive,inactive
COc1ccc(-c2cnc3c(c2)C(=O)N([C@H](C)CO)C[C@H](C)[C@H](CN(C)C(=O)Cc2ccccn2)O3)cc1,inactive,inactive,inactive
OCCN(CCO)c1nc(N2CCCCC2)c2nc(N(CCO)CCO)nc(N3CCCCC3)c2n1,inactive,inactive,inactive
CC[C@@H](N)Cn1c(=O)oc2ccccc21,inactive,inactive,inactive
Cc1noc(C)c1NC(=O)Nc1ccc2c(c1)CC(=O)N([C@H](C)CO)C[C@@H](C)[C@@H](CN(C)S(=O)(=O)c1ccccc1)O2,inactive,inactive,inactive
OCc1cccc(CO)c1F,inactive,inactive,inactive
COc1ccc(S(=O)(=O)Nc2ccc3c(c2)C(=O)N([C@@H](C)CO)C[C@H](C)[C@H](CN(C)C(=O)Nc2cccc4ccccc24)OCCCC[C@H](C)O3)cc1,inactive,active,inactive
Cc1noc(C)c1S(=O)(=O)N(C)C[C@@H]1Oc2ccc(NS(=O)(=O)c3cccs3)cc2CC(=O)N([C@@H](C)CO)C[C@@H]1C,inactive,inactive,inactive
C=CC[C@@H](CC(=O)N[C@H](CO)Cc1ccccc1)C(=O)N[C@@H](C)COC(=O)[C@H](CC=C)CC(=O)OC(C)(C)C,inactive,inactive,inactive
C[C@@H]1CN([C@H](C)CO)C(=O)c2cc(NC(=O)NC3CCCCC3)ccc2O[C@@H](C)CCCCO[C@H]1CN(C)C(=O)C1CCCCC1,inactive,inactive,inactive
C[C@H]1CN([C@@H](C)CO)C(=O)c2cc(C#Cc3cccc(F)c3)cnc2O[C@@H]1CN(C)C(=O)C1CCOCC1,inactive,inactive,inactive
C[C@H](CO)N1C[C@H](C)[C@H](CN(C)S(=O)(=O)c2cn(C)cn2)Oc2ccc(NC(=O)C3CC3)cc2CC1=O,inactive,inactive,inactive
COCC(=O)N1C[C@@H]2OCCN(c3ccc(C)nn3)[C@H]2C1,inactive,inactive,inactive
COc1cccc(C(=O)Nc2ccc3c(c2)C(=O)N(C)[C@H]2CC[C@H](CC(=O)Nc4ccc5c(c4)CCCC5)O[C@@H]2CO3)c1,inactive,inactive,inactive
COc1ccc(S(=O)(=O)N(C)C[C@H]2Oc3ccc(NC(=O)Nc4c(C)noc4C)cc3CC(=O)N([C@@H](C)CO)C[C@@H]2C)cc1,inactive,inactive,inactive

Structure (SMILES),cytotoxicity call (HSkMC),cytotoxicity call (HepG2),growth inhibition call (S. aureus RN4220)
Cc1ccc(S(=O)(=O)N(C)C[C@@H]2OCCCC[C@H](C)Oc3ccc(NC(=O)Nc4cccc5ccccc45)cc3C(=O)N([C@H](C)CO)C[C@H]2C)cc1,inactive,inactive,inactive
O=C(O)[C@H]1C[C@H]2C(=O)NCC(=O)N2[C@H]1c1ccc(O)cc1,inactive,inactive,inactive
COc1cccc(NC(=O)Nc2ccc3c(c2)C(=O)N(C)C[C@@H](OC)[C@H](C)CN(CCC(F)(F)F)[C@H](C)CO3)c1,inactive,inactive,inactive
COc1ccc(NC(=O)N(C)C[C@@H]2OCc3cn(nn3)CCCC(=O)N([C@@H](C)CO)C[C@@H]2C)c(OC)c1,inactive,inactive,inactive
C[C@H](CO)N1C[C@H](C)[C@@H](CN(C)S(C)(=O)=O)Oc2cc(-c3ccccc3F)ccc2S1(=O)=O,inactive,inactive,inactive
C[C@@H]1CN([C@H](C)CO)C(=O)c2cccc(NC(=O)c3nc4ccccc4s3)c2O[C@@H]1CN(C)Cc1ccc(-c2ccccc2)cc1,inactive,inactive,inactive
COc1ccc(S(=O)(=O)Nc2cccc3c2O[C@H](CN(C)CC2CC2)[C@H](C)CN([C@@H](C)CO)C3=O)cc1,inactive,inactive,inactive
CC(C)NC(=O)N(C)C[C@@H]1OCCCC[C@@H](C)Oc2ccc(NS(=O)(=O)c3cn(C)cn3)cc2C(=O)N([C@H](C)CO)C[C@@H]1C,inactive,inactive,inactive
C[C@@H]1CN([C@H](C)CO)C(=O)c2cccc(NC(=O)Nc3ccccc3)c2O[C@H]1CN(C)S(=O)(=O)c1cn(C)cn1,inactive,inactive,inactive
Cc1cccnc1[C@H](c1ccc(F)cc1)N(C)C(=O)C1CCN(CCOc2ccc(Cl)cc2Cl)CC1,active,inactive,active
COc1ccccc1C#Cc1cnc2c(c1)C(=O)N([C@@H](C)CO)C[C@@H](C)[C@H](CN(C)C(=O)CC1CC1)O2,inactive,inactive,inactive
COc1ccc(S(=O)(=O)Nc2ccc3c(c2)C(=O)N([C@H](C)CO)C[C@H](C)[C@@H](CN(C)C(=O)Nc2ccc(F)cc2)OCCCC[C@@H](C)O3)cc1,inactive,inactive,inactive
Cc1ncc([N+](=O)[O-])n1CC(C)O (stereo not given),inactive,inactive,inactive
C[C@H]1CN([C@@H](C)CO)C(=O)Cc2cc(NC(=O)Nc3ccc(C(F)(F)F)cc3)ccc2O[C@H]1CN(C)S(=O)(=O)c1ccc(Cl)cc1,active,active,inactive
CO[C@@H]1CN(C)C(=O)c2cc(NC(=O)Nc3ccccc3F)ccc2OC[C@@H](C)N(Cc2ccccc2C(=O)O)C[C@@H]1C,inactive,inactive,inactive
COCC(=O)Nc1ccc2c(c1)OC[C@H](C)N(Cc1ccccc1F)C[C@H](C)[C@H](OC)CN(C)C2=O,inactive,inactive,inactive
COc1cccc(C#Cc2ccc3c(c2)O[C@@H](CN(C)C(C)=O)[C@H](C)CN([C@@H](C)CO)S3(=O)=O)c1,inactive,inactive,inactive
Cc1ccc(S(=O)(=O)N2C[C@H](O)COC[C@@H]3O[C@H](CC(=O)N[C@H]4CCN(Cc5ccccc5)C4)CC[C@H]32)cc1,inactive,inactive,inactive
C[C@@H]1CCCCO[C@@H](CN(C)CC2CCCCC2)[C@@H](C)CN([C@@H](C)CO)C(=O)c2cc(NC(=O)CCCN(C)C)ccc2O1,inactive,inactive,inactive
C[C@@H](O)C#Cc1ccc2c(c1)O[C@@H](CN(C)C)[C@@H](C)CN([C@@H](C)CO)S2(=O)=O,inactive,inactive,inactive
C[C@H]1CCCCO[C@@H](CN(C)Cc2ccccc2)[C@@H](C)CN([C@@H](C)CO)C(=O)c2cc(NC(=O)C3CCCCC3)ccc2O1,inactive,inactive,inactive
C[C@H](CO)N1C[C@H](C)[C@@H](CN(C)Cc2cccc3c2OCCCO3)OCc2ccccc2-c2c(n(C)c3ccccc23)C1=O,inactive,inactive,inactive
C[C@@H]1CN([C@@H](C)CO)S(=O)(=O)c2ccc(C#CCN(C)C)cc2O[C@H]1CN(C)S(C)(=O)=O,inactive,inactive,inactive
C[C@@H]1CCCCO[C@H](CN(C)C(=O)c2ccncc2)[C@@H](C)CN([C@H](C)CO)C(=O)c2cc(NS(=O)(=O)c3ccc(Cl)cc3)ccc2O1,inactive,inactive,inactive
C[C@H]1CN([C@@H](C)CO)C(=O)Cc2cc(NS(=O)(=O)c3cccs3)ccc2O[C@H]1CN(C)Cc1ccc(Cl)c(Cl)c1,active,active,inactive
O=C(C[C@@H]1C[C@@H]2c3cc(NC(=O)c4ccc5c(c4)OCO5)ccc3O[C@@H]2[C@H](CO)O1)NCc1ccc(Oc2ccccc2)cc1,active,active,inactive
Cc1noc(C)c1S(=O)(=O)Nc1cccc2c1O[C@H](CN(C)S(=O)(=O)c1ccc(F)cc1)[C@@H](C)CN([C@H](C)CO)C2=O,inactive,inactive,inactive
